Experimental data taken from the supplement of paper PMC11417369.
± gives the standard deviation of the averaged measurements. This is one part of the list.

What follows are sequences tested on PfAP2-I AP2 domain 3 (GST-tagged) (assay: gcPBM binding intensity (ln(normalized median fluorescence intensity)); higher = stronger DNA binding).
Summary of the method: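 GST-tagged P. falciparum DNA-binding domains, expressed in E. coli (about 25 μg on average), were applied for 1 h to an Agilent 4 × 180k array of primer-extended double-stranded 36-bp intergenic genomic probes plus negative controls. The binding buffer was 1× PBS with 1% milk, 0.2 mg/ml BSA, 0.5% salmon testes DNA and 0.03% Triton X-100. Bound protein was detected with Alexa488 anti-GST antibody and scanned at 488 nm. Binding intensity is the highest Masliner-normalised natural-log median intensity across replicate spots of either probe orientation.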

Sequence	gcPBM binding intensity (ln)
TGTTATATTTCAAATTGTACTAATCTAATTAATAAA [XGTACX_site604]	7.62 ± 0.38
ATGGAATTTTTAGAATATGGATAATGTTACTTAAGT [CACACA_negctrl_site494]	7.64 ± 0.64
GTTATATATATATATATATATATATATATTTTTTTT [GTGCAC_negctrl_site597]	8.29 ± 0.53
TATATCGTTAATTATACACACATAAAATTAAACTTT [CACACA_site1274]	7.8 ± 0.43
AAAAACCATGGGCACACACACATAATATATAATATA [CACACA_site1425]	7.86 ± 0.45
AAATTAAAAAAGAATATACACACCAAAACTGTTTGT [CACACA_site958]	7.49 ± 0.63
TAAAAAAAGGAAAACATACAATTCTATTTTTCAATA [CACACA_negctrl_site474]	7.18 ± 0.68
ACCATACATACATACACACACACACGCATATTTATA [CACACA_site7386]	8.48 ± 0.49
TAATTTTAAATATCTTCACACATTATATTTTTATAT [CACACA_site5411]	7.785 ± 0.035
TATAATAATACTTATTGTACGATTAGCTTAATTCGT [XGTACX_site15]	7.42 ± 0.52
TATATAAATAGATACACACATACATACATACATACA [CACACA_site260]	8.81 ± 0.54
AAGGGTTATTTGATATGTACTTATATATATATATAA [XGTACX_site1659]	7.91 ± 0.2
AAGGTGGAAACAATTACACACACACTAATAAAAAAA [CACACA_site9051]	8.08 ± 0.45
TTTTTTAAAAGAAAATAAAAAATAAGCATAATATGA [CACACA_negctrl_site1574]	7.64 ± 0.51
AAGTACAAATTTAATAAAAATGAAACAAATATGTAT [TGCATGCA_negctrl_site94]	7.64 ± 0.69
TTCCAAAAAATTATTACACACATATGAGCACATATA [CACACA_site4543]	7.96 ± 0.4
TATTAATTAAAAAAATGTACATAATTATAAATTTTT [XGTACX_site7994]	7.5 ± 0.34
TACGGTTGTTTATTTTGTACGTAAAAAATATATTAT [XGTACX_site8393]	8.03 ± 0.28
TAATATACATATATATGTACATATATATATATATAT [XGTACX_site2684]	9.09 ± 0.47
AACAATTATTTGTCGACACACGTATATGTTATTTAG [CACACA_site5046]	8.32 ± 0.64
ACCGTGGGAGGACACACACACACACCCACATATATA [CACACA_site4339]	8.04 ± 0.54
ATTTTTGTTATTACATGTACCCATAATTATTATTAA [XGTACX_site3558]	8.58 ± 0.75

Sequence	gcPBM binding intensity (ln)
TATTTATATTCCTTTACACACTCCATCTTATATCCA [CACACA_site3604]	7.99 ± 0.76
ACAAAAAAATGAAAAGAAAAAGATATACCCCAATAT [CACACA_negctrl_site509]	8.43 ± 0.47
ATATCCATAATAAAAACATGCAACAGAAAAAAAAAA [TGCATGCA_site497]	8.11 ± 0.91
AAGAGAAATATATATTGTACAATAATTTTATTTGGT [XGTACX_site7642]	7.82 ± 0.35
TATATATTAATATTTACACACATGCGCACCCATAAA [CACACA_site2410]	9.86 ± 0.57
TATATAATTAAAATAACACACATATATAAAAATATA [CACACA_site2990]	7.53 ± 0.46
ATATTATAGTATATAACACACATTTTTCATAACACT [CACACA_site6331]	7.86 ± 0.54
TGGCAAAATAGGCACACACACATATACATATATATT [CACACA_site1059]	8.02 ± 0.42
GTATATATATTTCTTTAATAATTAAATTATAAATAT [CACACA_negctrl_site640]	7.72 ± 0.43
AATATATAAACACGTACACACACATATATGTATATA [CACACA_site9168]	8.28 ± 0.3
AATTTAAATATTTGTTGTACGTATTTATATATTCTT [XGTACX_site3623]	7.89 ± 0.69
TATTATATCTTATATGTATATTCCCACAAATTATAT [GTGCAC_negctrl_site362]	7.63 ± 0.58
ATAATATATAAACACACACACATATATAAATACATT [CACACA_site4466]	7.84 ± 0.35
CATGCCGTTAAATTATGTACTTATTATTTTAATATG [XGTACX_site4209]	7.75 ± 0.19
TAAATTAAATATTATAAACACACATATATATTATTT [CACACA_site8189]	7.49 ± 0.47
TTAAAAAATTATTGTAGTACATAGGAAATGAAAAAA [XGTACX_site155]	8.43 ± 0.18
TATATACATAAAATTTGTACATATATATATATATAT [XGTACX_site3214]	9.32 ± 0.27
AAAAAAAAAAAATGAGCACACATAAATAAAAACAAA [CACACA_site8447]	8.03 ± 0.19
ATATAAATAAATACAACACACATGTCATATCTAAAT [CACACA_site7533]	7.79 ± 0.42
ATATTATTCTTATATTCACACAGTTTATATTTCCGT [CACACA_site5653]	7.96 ± 0.47
AAATTACATACACGCGCACACACAAAAAAAAAAAAA [CACACA_site1335]	8.32 ± 0.43
